± gives the standard deviation of the averaged measurements. In all, about 4,000 sequences were measured (“arbitrary fluorescence units”: median about 830, highest 2% from about 6,500 on). This part holds few or none of the hits.
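Also: Full-length recombinant human RUNX1 bound to double-stranded DNA microarray spots, detected with an Alexa488-labelled secondary antibody after the anti-RUNX1 primary, read as scanned spot fluorescence.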

UniProt Q01196, sequence (Q01196 whole entry): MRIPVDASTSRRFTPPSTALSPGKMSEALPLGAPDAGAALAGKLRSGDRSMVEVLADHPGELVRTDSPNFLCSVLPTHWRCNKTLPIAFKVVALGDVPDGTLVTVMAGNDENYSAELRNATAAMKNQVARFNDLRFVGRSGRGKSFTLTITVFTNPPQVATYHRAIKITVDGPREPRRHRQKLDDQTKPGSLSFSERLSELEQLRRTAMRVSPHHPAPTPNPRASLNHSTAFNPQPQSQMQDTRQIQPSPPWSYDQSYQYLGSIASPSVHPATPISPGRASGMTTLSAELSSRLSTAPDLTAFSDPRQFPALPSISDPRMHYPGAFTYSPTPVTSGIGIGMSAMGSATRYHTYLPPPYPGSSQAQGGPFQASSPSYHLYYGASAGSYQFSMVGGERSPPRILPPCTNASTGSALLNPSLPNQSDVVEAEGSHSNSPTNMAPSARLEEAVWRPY

The test has as its target RUNX1 (UniProt Q01196). As to the kind of experiment: RUNX1 binding intensity (PBM fluorescence), RUNX1 alone (arbitrary fluorescence units); higher = stronger binding. The note with it: RUNX1 concentration 2 nM; ETS1 concentration 0 nM. The procedure:
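gcPBM on 36-bp genomic-derived probes (partner site mutated) containing one RUNX1 site and no ETS1 site. Recombinant human RUNX1 (2 nM) was incubated alone or with ETS1 (25 nM) and detected by anti-RUNX1 antibody fluorescence. Values are medians over 4 replicate spots (not normalised). The probes sit in constant array flanks that are not printed.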
The sequence CAGGGCCTGTGGTGCCTTGCGCAGCGGAGATGGCGC returned an RUNX1 binding intensity of 679.
With TATTCATGACATGCTGTCGGGCTTGTGGGCTGCGTA the figure was 737.
In the case of CCTCCTCTTCGTCCCCACTCTGCACATGCGGCTGGG it was 1160; in that of GGGTCGCGGCCTTACGGCGAACGCGGTTACCGTGGA, 816; in that of GAAACCACACCAGCAAGCTTAAGTACATGAAGAATA, 946.
With GCAAAAACAGCGGTCTTGAAGGCAGCCTGCCTGATA the figure was 765; with GGTTTAACGTCTCCGGTTTGTGGCTAGTTTCTTGTC, 947; with CACCTCCCACTCACCACAGAGTTTCATGGTGTTTTA, 1090.
Take ATCTTCAGGGAGCGGTATCAACCTGAAAACCACCAC: the RUNX1 binding intensity came to 928.
With GGCTGAAGGTTGCCGTGCTTGGAAACCGCGCCTCCG the figure was 804; with AGTGTAGTAACCACAGGCCCCGAAAACCTCCCCCTC, 3630; with CCCGGCCACTGCCGCCTATTGCGGGCGTCGGCTAGG, 644.
With GCCCTCACCGCAGTTCCTGCCCAACGACATACGGGT the figure was 3800.
In the case of GCGCGGACTCCGAGAAGCTGAGCGGTAAAGACCGTG it was 701; in that of GCGGCCTGCGGGAGGACGGTGGTGCTTTCCAGCCTA, 970.
The sequence AGCCCGCCGAAAACTAGCGTCACCGCGCCAAGGTTC yielded an RUNX1 binding intensity of 771.
For CCGGGTAGGATCCAGTTGCCTTTCTGCGGTGGAGGA, the RUNX1 binding intensity turned out to be 839.
With GTTTGAAGGGAACTGGGTGTTGACCTGCGGGCAACT the figure was 694.
In the case of TGGTTTGTGGGACACCTCAACAGCATGTTAGTGAGG it was 726; in that of GCTTGACCTCAACACCTGCTACACTGCCTGAAGACA, 1160 ± 47; in that of TACTCTAAACCACTTCAAACCTCCACTTGCTGCCCC, 1340.
Sequence TGAAGGGACGGAGGGGACAGAACTTGCGGGAGGCAC showed an RUNX1 binding intensity of 689.
In the case of AGCCGGAGGCGCAAGGAGCAGCGCTACCGCAGCGTC it was 738.
With AATCTGTGGTTTCCACTGTTAGAATTTACTGCCTCT the figure was 2100; with GTGGCTGCTGTGGTCAGGCTGTTCTTTCATGTTGCT, 1660; with CCGCCCTTCAGGCTGGCCCCGCTCAGTCACCCGCAG, 975.
With CCGAGAAGTGGAACCGCCAGGCGGAGGGGGCGGAGT the figure was 767; with ATAGTGCGGTGAGCCAACATGGGGGAGATGCCTGGA, 827.
Take GCCGGGAATGCGGGCTCTCCTGCCGTAAGCTGCCCC: the RUNX1 binding intensity turned out to be 800.
With AGTTTCTCCATGAAGCGCTGAGGTTTTCTCAGAAGT the figure was 812; with TCGCTTACGGTGTCGGTTACAGACTGTGGTTGCCAT, 812.
With TGTGGCCAGCACGCAAGAGCCCCACCACATGTGCTT the figure was 775.
In the case of GACAATGTAGTGGTTGTCAGGAGGTTGCTAAGTCAT it was 716.
As for CGGGTACCGCAAGGGACAAACGGCGAGGCCGAACTC, the RUNX1 binding intensity amounted to 902.
In the case of TAACTACGTCCTTTTACTATCTACCACAATTTAATT it was 1200.
In the case of AAACCTGTGGCTAGTGGGGGCCATGAAGGATCTGTT it was 869.
For TGGAAGGCTGGAAAAGGTTTACCACCACACTCCGGT, the RUNX1 binding intensity came to 606.
In the case of CAAGGTTGACCACACACCACCCTGTCGGAGCAGCTC it was 1490.
With TATGTGGAGTAACCGCCTTCAGTTTTCTGGTTCTGA the figure was 763; with CAAAAGTGGTTGATGAACATTAGAATCAGGCAATGG, 670.
With AGTCTCGCGGTGCTTGAACCAGCGAAAGTGACGTCG the figure was 675; with CGAACTCCCGTACGGCCGCGCCCGCAGCCCGCCGCC, 866; with CGGTCCCGGCGCCTGAAGTTTTAGCTGCGGTGGCGG, 740.
The sequence TGTGTAAGAGGCAACACCAAAACCACAAATATGAAA yielded an RUNX1 binding intensity of 2010.
GTGATGGCACCCACAAAGCTGCAGAGGAGGTGAGCA registered an RUNX1 binding intensity of 800.
For CGATTCTGGAGACAGGCCCCACCGTGCGGTAAACTG, the RUNX1 binding intensity came to 799.
With GAGCAGGGCTGCGGGGTCTTTACCGTCGGGCTCCGC, the RUNX1 binding intensity stood at 699.
With TTCAATCACAGTAAACAGACGTCACCCACAGACCTA the figure was 877; with TGCCAGATCCAGCTGCGCCGGGGCCGAAACCACGCC, 688.
With TGTGAGAAGTCGGATCCTGTGGTGACCCAGTGGCCT the figure was 755; with GAAAACCACAGAGGCATTCAAAGACATGAAGCAGAG, 2350.
In the case of TATTCAGGCTTACGGGTGATGTTTGTGGCCACCCGG it was 746; in that of ATGCCAAGGGACCTCCCTCCACAACCGCCCCCAGCT, 930; in that of CTCTCCACCTCCTCCCGACCAGGACCGCACCCCCCC, 1780.
Sequence AAGATGCCCCCTTCAGCTGGAAAGCGGTAATGCCCA came in with an RUNX1 binding intensity of 800.
Turning to CTGACACTCCCGGGAGCCTTGTAGCCACAGGAATCA, the RUNX1 binding intensity turned out to be 757.
In the case of CAGCTGCGGGCCTGGGTGTACGGAGCCCCGAACAGG it was 721.
In the case of TGCACCCGCCACTTTCGCATCGAACCGCCGCTTCAA it was 1050.
The sequence GGCGCCCGGGAATCTGTGTGGCGCTGCGGGCCGCGC returned an RUNX1 binding intensity of 616.
In the case of CCTCCGCTGTGGTGTCTGTAACTACTGCCTCAGGAG it was 808; in that of CAGGCTGCTGTGGCTACTGCAGCACTGCCTCCCGCT, 741.
In the case of GTATCACTGCCTGTTTTCCTCTGTGGCTTACTGCTG it was 1090.
In the case of CGGGTCCTGCGGGCGCTGGCGGCAAGAGGCGAGGCG it was 736.

Source of the values: the supplement of paper PMC10681739.
